The record followed here is publication PMC6919601, “Identification of Plasmodium dipeptidyl aminopeptidase allosteric inhibitors by high throughput screening” (PLoS ONE, 2019).

Hit rate of the full screen: of about 110,000 compounds, about 230 (0.21%) showed an effect of 50% or more. This is one part of the list.
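Further: 30 min substrate incubation versus DMSO and 10 µM JCP410 controls.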

For the assay, the target named is DPAP1 (Plasmodium falciparum, UniProt Q8IIJ9). As to the kind of experiment: primary screen, percent inhibition; read by cleavage of a fluorogenic dipeptide substrate; higher = more effect of the substance. Also on record: species or system P. falciparum D10 trophozoite lysates; single well.
Chain of DPAP1 (Q8IIJ9 whole entry, looked up): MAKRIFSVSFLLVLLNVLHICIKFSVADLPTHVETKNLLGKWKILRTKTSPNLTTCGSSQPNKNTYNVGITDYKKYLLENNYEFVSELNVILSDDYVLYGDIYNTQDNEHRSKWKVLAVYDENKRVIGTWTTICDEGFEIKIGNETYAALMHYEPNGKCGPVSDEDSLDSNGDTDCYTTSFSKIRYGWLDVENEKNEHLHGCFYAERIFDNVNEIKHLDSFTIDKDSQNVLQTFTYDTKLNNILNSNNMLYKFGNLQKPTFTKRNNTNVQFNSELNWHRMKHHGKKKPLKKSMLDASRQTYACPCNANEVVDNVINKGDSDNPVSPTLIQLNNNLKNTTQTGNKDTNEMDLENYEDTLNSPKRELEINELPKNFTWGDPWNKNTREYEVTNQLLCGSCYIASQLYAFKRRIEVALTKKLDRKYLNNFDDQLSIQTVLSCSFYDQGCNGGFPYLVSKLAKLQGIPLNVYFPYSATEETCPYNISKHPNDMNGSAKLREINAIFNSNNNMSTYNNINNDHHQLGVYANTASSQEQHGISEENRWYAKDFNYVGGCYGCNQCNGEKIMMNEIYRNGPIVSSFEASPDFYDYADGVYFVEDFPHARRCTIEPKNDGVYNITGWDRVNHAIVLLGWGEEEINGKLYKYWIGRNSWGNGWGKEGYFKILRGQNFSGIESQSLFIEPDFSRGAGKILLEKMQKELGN
Regarding `CSc1nc2c(c(=O)n1Cc1ccccc1)C1(CCCCC1)Cc1ccccc1-2`, the “% Inhibition @ 10 uM” value came out at 1.42%.

In the case of `N#CC1=C(N)OC2=C(C(=O)CCC2)C1c1ccc(Br)cc1` (centres unmarked), the “% Inhibition @ 10 uM” value is given as -3.72%. The result for `CC1(C)Cc2c(c(N3CCOCC3)nc3sc(-c4cc(C(=O)O)co4)c(N)c23)CO1` reads -5.41%; that for `Cc1cc2nc(O)c(O)nc2cc1S(=O)(=O)N1CCCCC1C` (centres unmarked), 0.107%. The result for `Cc1ccc(NC(=O)c2cnn3c2NC(C2CC2)CC3C(F)F)cc1` (centres unmarked) reads -9.25%; that for `Cc1cc(C(F)F)n2nc(C(=O)NCc3ccccc3C(F)(F)F)nc2n1`, 1.86%. As for `CC(CCc1ccccc1)NC(=O)CCn1ccc2cc(S(=O)(=O)N3CCCC3)ccc21` (centres unmarked), the “% Inhibition @ 10 uM” value turned out to be 0.756%. With `COc1ccc(C2C(C#N)=C(N)Oc3c2sc2ccccc32)c(OC)c1` (centres unmarked), the “% Inhibition @ 10 uM” value is listed as -2.07%.

For `CCn1c(C(=O)NC2CCCC2)cc2oc3ccccc3c21`, the “% Inhibition @ 10 uM” value is listed as 1.22%. For the compound `CC1=C(CCN2CCCC2CO)C(C)(C)CCC1` (centres unmarked), the “% Inhibition @ 10 uM” value was determined as 3.35%.

For `COc1ccccc1NC(=O)c1c(NC(=O)Cc2ccccc2)sc2c1CCC2`, the “% Inhibition @ 10 uM” value was -2.58%. As to `CC(C)C[C@H](NC(=O)c1cccc(CN)c1)C(=O)NNC(=O)c1csc([C@H](CC(C)C)NC(=O)OCc2ccccc2)n1`, the “% Inhibition @ 10 uM” value was 0.744%. In the case of `CCCCN(CC)CCNC(=O)CCS(=O)(=O)c1cccc2nonc12`, the “% Inhibition @ 10 uM” value was found to be 3.61%. Consider `Cc1cc2c(c(=O)o1)C(c1ccc(F)cc1F)C(C#N)=C(N)O2` (centres unmarked), for which the “% Inhibition @ 10 uM” value was found to be 3.1%.

In the case of `COc1ccc(CN2CCN(Cc3ccccc3OC)CC2)cc1Br`, the “% Inhibition @ 10 uM” value is reported as 15.7%. Turning to `CC(Cc1ccccc1F)NN1CCOCC1` (centres unmarked), the “% Inhibition @ 10 uM” value is -5.31%. Take `CCOC(=O)C1=C(C)N=c2s/c(=C\c3ccccc3F)c(=O)n2C1c1ccccc1F` (centres unmarked): the “% Inhibition @ 10 uM” value is -1.85%. Take `COc1ccc(CNC(=O)c2cn(C3CCCC3)c(=O)c3c2c2ccccc2n3C)c(OC)c1`: the “% Inhibition @ 10 uM” value was 0.163%. As to `CC/C(=N\N=C1\SC(C)C(=O)N1Cc1ccco1)c1ccccc1` (centres unmarked), the “% Inhibition @ 10 uM” value is on record as -1.24%. For the compound `Cc1cc2nc(-c3c(O)c4ccccc4n(C)c3=O)[nH]c2cc1C`, the “% Inhibition @ 10 uM” value is reported as 1.84%. With `CCOc1ccnc(CSc2nc(C)cc(C)n2)c1C`, the “% Inhibition @ 10 uM” value amounted to 0.843%. Turning to `Cc1ccc(S(=O)(=O)c2nnn3c2nc(N2CCN(Cc4ccccc4)CC2)c2ccccc23)cc1`, the “% Inhibition @ 10 uM” value was -1.87%.

`O=C1c2ccccc2C(O)(Cc2ccccc2)N1CC1CCCO1` (centres unmarked): the “% Inhibition @ 10 uM” value is listed as -0.759%. As to `CC(=O)N1CCN(CCC2=C(C)CCCC2(C)C)CC1`, the “% Inhibition @ 10 uM” value was -3.42%. As for `Cc1c(C(=O)NCCN2CCN(C)CC2)oc2ccc3c(c12)C(=O)CC1(CCCCC1)O3`, the “% Inhibition @ 10 uM” value is given as -6.58%. `Cc1ccc(-c2noc(CCC(=O)NCCc3ccc(Cl)cc3)n2)cc1`: the “% Inhibition @ 10 uM” value is 2.42%.

As to `O=[N+]([O-])c1ccc(NC2CCCc3ccccc32)nc1` (centres unmarked), the “% Inhibition @ 10 uM” value came out at 0.565%.

On to `COc1cc(CCNC(=O)CCc2nc3cccnc3n2-c2ccccc2)cc(OC)c1OC`, for which the “% Inhibition @ 10 uM” value is -2.88%.

Take `COc1ccc(Br)cc1C1C2=C(O)CC(C)(C)CC2=NC(C)=C1C(=O)N1CCOCC1` (centres unmarked): the “% Inhibition @ 10 uM” value is reported as 1.86%.

Turning to `CC(C)c1ccc(C2C(C(=O)c3ccccc3)=C(O)C(=O)N2CCCN2CCOCC2)cc1` (centres unmarked), the “% Inhibition @ 10 uM” value is -6.81%.

Take `O=S(=O)(Nc1ccc(Cl)cc1)c1ccc(F)cc1`: the “% Inhibition @ 10 uM” value turned out to be 1.83%.

With `COCCCNC(=O)c1cc(S(=O)(=O)N2CCC3(CC2)OCCO3)ccc1F`, the “% Inhibition @ 10 uM” value is 3.04%. `O=C(O)C1C2CCC(C2)C1C(=O)Nc1ccccc1` (centres unmarked): the “% Inhibition @ 10 uM” value was -0.996%.

For `COc1ccccc1OCc1ccc(C(=O)NCC(C)C)o1`, the “% Inhibition @ 10 uM” value is -8.95%. The result for `CCOc1ccc(-c2c(C)sc3ncn(CC(=O)O)c(=O)c23)cc1` reads -1.18%; that for `S=c1n(-c2ccccc2)cnn1CN1CCCCC1`, -2.42%. Turning to `COc1ccc(C2NC(=O)NC(C)=C2C(=O)OCCOc2ccccc2)c(OC)c1` (centres unmarked), the “% Inhibition @ 10 uM” value is on record as 2.45%. `CCOc1ccccc1C1C2=C(O)CC(C)(C)CC2=Nc2nc(C(F)(F)F)nn21` (centres unmarked): the “% Inhibition @ 10 uM” value is listed as -5.43%.

As to `Cc1ccc(-n2cc(-c3ccccc3)c3c(NCCCN4CCOCC4)ncnc32)cc1`, the “% Inhibition @ 10 uM” value was -2.84%.

With `COc1ccc(CCC(=O)Nc2cc(C)ccc2C)cc1`, the “% Inhibition @ 10 uM” value is -1.2%. Consider `N#Cc1nc(/C=C/c2ccc(F)cc2)oc1NCc1cccnc1`, for which the “% Inhibition @ 10 uM” value was found to be 2.54%.

For the compound `Cc1cccc2c(C(=O)O)c3c(nc12)CCCCC3`, the “% Inhibition @ 10 uM” value is listed as 1.67%. As for `Cc1ccccc1CNC(=O)Cn1ncc2ccccc21`, the “% Inhibition @ 10 uM” value is given as -5.32%. With `Cc1ccccc1C(=O)NCCc1csc2nc(-c3ccccc3)nn12`, the “% Inhibition @ 10 uM” value is reported as 3.05%. Turning to `CC(C)(C)C(=O)NC1(C(F)(F)F)N=C2SCCN2C1=O` (centres unmarked), the “% Inhibition @ 10 uM” value is reported as -3.53%. The result for `Cc1cc(N2CCC(C(=O)N3CCOCC3)CC2)n2nc(C)c(-c3ccc(Cl)cc3)c2n1` reads -3.7%; that for `COc1ccc(NC(=O)C2CC=CCC2C(=O)OCC2CCCO2)cc1` (centres unmarked), -1.91%; that for `Cc1c(C(=O)NCC(=O)O)c(-c2ccccc2)nn1-c1ccccc1`, 0.716%. For the compound `Cc1ccc(S(=O)(=O)N(CCc2ccccc2)CC(=O)N2CCCC2)cc1`, the “% Inhibition @ 10 uM” value was found to be 2.17%.

As to `CCN1CCN(CCCNC(=O)c2oc3ccc(S(=O)(=O)N4CCOCC4)cc3c2C)CC1`, the “% Inhibition @ 10 uM” value worked out at 1.16%.
